First the molecules themselves.
B1: CPEB3 Ribozyme (parent)
chain: UAACAGGGGGCCACAGCAGAAGCGUUCACGUCGCAGCCCCUGUCAGAUUCUGGUGAAUCUGCGAAUUCUGCUGUAUAUCUC

Our source for the self-cleavage values is the RNAGym collection of RNA variant scans (doi:10.1093/nar/gkz1192).

The source gives no read counts; variants with many changes may rest on few reads.

Variants of B1 are the subject of this data set. In words: self-cleavage, relative activity (ratio to wild type); higher = more cleavage; in vitro, sequencing. A digest of the protocol:
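CPEB3 self-cleaving ribozyme mutant libraries were made by rounds of error-prone PCR, barcoded, and transcribed in vitro with T7 RNA polymerase for 5 hours at 37°C. Cleavage occurred during transcription and a 15 min DNase I step before EDTA stop. RNAs were reverse transcribed with template switching and Illumina-sequenced, with DNA sequencing mapping barcodes to variants. Relative activity is the variant's cleaved/total read fraction divided by wild type's (minimum 5 reads), averaged across three batches.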
As for G8A U54C U67C U80C, the self-cleavage was found to be 0.11.

Turning to G7U A35U U41G U78C, the self-cleavage came out at 0.33. Turning to G8A A35G U41A A64G, the self-cleavage was found to be 0.06.

Take G8A U25A U31C A35U U74C: the self-cleavage came out at 0.04. The same measure for G6U U25C U41A U66C: 0.08. The same measure for G7A A20U U26A C37A U49C: 0.15. For the variant G6U A35G U66C, the self-cleavage amounted to 0.28. The same measure for G7A G33U U67C A75G: 0.34.

For the variant G7U A35G C38A U66C U72C, the self-cleavage was found to be 0.06. On to G7A C23G A35U U54G A56U U69A U80A, for which the self-cleavage stood at 0.05. The same measure for G6U A35G A45U: 0.13; for G6U G52U A64U U69C: 0.08.

As for G6U G24A A77G, the self-cleavage was 0.06. The same measure for G8A G16U A28G U31C U69C: 0.07. The same measure for G7A A21U A47G: 0.06.

Turning to G8A U41C U54C U69A, the self-cleavage came to 0.07.

For G8C A15U A20G U58C U80G, the self-cleavage turned out to be 0.13. The same measure for G8A G24A U25G U51A G52A U72C: 0.05; for G7C C11U A15U A65G A77G: 0.18; for G8A G36A C39U U48A A65G: 0.05. Take G8A U25C A65G C81A: the self-cleavage was found to be 0.05. The same measure for G7A C50U G53C U67C C68U U80C: 0.04; for G7U A13U U26A A47G U51A G61A U72C: 0.05.

Consider G8A G10U A15U G16C U31C A35G A65G, for which the self-cleavage was 0.17. The same measure for G7C G19A A57U G63C A65G U66C U80C: 0.04. The same measure for G7U C23U U43A: 0.04. G6U U26A A28G U41A A45G U72A: the self-cleavage was found to be 0.13. In the case of G7U A28U U41A U48C U67C U80C, the self-cleavage was 0.1. The same measure for G8A A15G A18G G33U U76A: 0.06; for G7A G24A U67C U69G: 0.05. The same measure for G8A A20G U48C U54C: 0.14; for G8A A15G A28G G33A A56G: 0.02. The same measure for G8A U51A U58C: 0.28; for G8A A28U U41C U76C A77G: 0.11; for G7A G22U U25C A64G U72A U80C: 0.06. Regarding G8A G10A C29U G55C, the self-cleavage was 0.14. The same measure for G7A C11A A18U C38A A56G U60A: 0.11; for G7A A15G C23U: 0.21; for G8A A15G A21U U25G C32U A35C U43C: 0.04. For the variant G7U U25A U48C A56G U67C, the self-cleavage is 0.09.

On to G8A C12U C44U, for which the self-cleavage is 0.07. The same measure for G6U G8U A45U A56U U80C: 0.24. The same measure for G7U C38A U72C: 0.19; for G7U A21G A35G U67C U76A U80C: 0.07. As for G7U U41A U49A G61C, the self-cleavage turned out to be 0.12. The same measure for G7A U41C U49A U69C: 0.06; for G6U C23A U31C: 0.3; for G7U A13G A20U U25C U41A: 0.02. The same measure for G7A A21G U26C C59A U60A: 0.05; for G8A A21G A28G C32U U49C A57U: 0.03. Regarding G8A U48C U49C, the self-cleavage was 0.06.

Regarding G7U A28G U31G, the self-cleavage was 0.15.

For G7U A13U U67A, the self-cleavage turned out to be 0.12. The same measure for G7A C37A U54A A57G A64G: 0.04. The same measure for G8A A35G U43A U51A U66A U72C A77G: 0.13; for G8A A18G U58C U72A: 0.06. The same measure for G8C A21U G63U U66C: 0.17; for G7U A20G U25C U69A U78A: 0.05. Regarding G7A U51C U58C A65G, the self-cleavage turned out to be 0.08.

G7C G33A U58A: the self-cleavage stood at 0.08. On to G7A G9U A21U A65G U69C, for which the self-cleavage was 0.04. The same measure for G6U U49A U78C: 0.25.

As to G6U U25C U60C, the self-cleavage came out at 0.27.

On to G6U A35U U41A U69C U72A, for which the self-cleavage was 0.1. The same measure for G7A A56G U66A U69C: 0.04. The same measure for G7A A47G U49C: 0.26; for G7U A45G A47G U66C: 0.07; for G8A A21G U26A: 0.06.

On to G7A U51C U60C U72C, for which the self-cleavage came to 0.14. The same measure for G6U C32U A35U U67A: 0.05; for G7A C27A A64G: 0.07; for G7C C29U U41C A56G: 0.09. For G8A A18U G19A C40A, the self-cleavage came out at 0.05. For the variant G8A U67A U72C, the self-cleavage is 0.07. As for G7U U25A G33C U49C U66C, the self-cleavage was 0.04. For G8A C40A U72A, the self-cleavage was 0.1. The same measure for G6U A35G U58C U69G U76C: 0.15; for G6U G7A A35C U51G U60C U66C U78C: 0.06; for G8A U41C U51A U66C: 0.32.

As for G7A G53A U60A U69C, the self-cleavage is 0.08. For the variant G8A A18G U25A G36A U80C, the self-cleavage was determined as 0.04.

As for G7A A13U U54C C62U, the self-cleavage came out at 0.06.

In the case of G8A G33U C38A U41C U49C A65G U67C, the self-cleavage was 0.02. The same measure for G7C G53U U72C: 0.4; for G8A C23G U26C U41A U69C U74A: 0.04; for G8A U25C U26A U41A U51G U74C: 0.2. The same measure for G7C A28G G53C A77G U80C: 0.14.

Consider G7U U26C A45U A57G U78C, for which the self-cleavage came to 0.04. The same measure for G7U U48C U49C U51A U60A U78C: 0.08; for G8A A15U U31C A47G G61A C62G U78C: 0.08; for G7U U69A U76G: 0.24. Regarding G7A U41C A45G A57G, the self-cleavage stood at 0.06.

Regarding G8A A21G U25C A35G A56G U60A, the self-cleavage turned out to be 0.06. The same measure for G8A A15G U26G U41C U76A: 0.34.

Turning to G7A A15U C23U A47G U48A, the self-cleavage came to 0.02. As to G8A G10A A15U C29U U60C, the self-cleavage stood at 0.05. As for G8A A15G A28G U60G, the self-cleavage was 0.26.

For G7A A20U G36A C40G, the self-cleavage was 0.05.

Consider G8A A15U U48C U51A, for which the self-cleavage stood at 0.07. Regarding G7U A20U U26A C37A A45G U49C, the self-cleavage worked out at 0.03. The same measure for G7C A20U U54G U60C U67C: 0.13. The same measure for G7U A18G G19U U54A G55U A56G: 0.13; for G7U A45G A64U: 0.15; for G7A G30U U78C: 0.05.

As to G8A U26A A47U A57U A64G A65G U74C, the self-cleavage stood at 0.03. The same measure for G8A A13G U69C U76C: 0.11; for G7A A64G A75G: 0.06; for G6U A35U U60C U67A C68A U69A U80C: 0.04.

As to G6U G16C U26A U48A U78C, the self-cleavage was 0.05. Consider G7C A28G C34U U54C U76C, for which the self-cleavage amounted to 0.18. On to G7A A15G A56U, for which the self-cleavage came to 0.3. The same measure for G7A C12U U25G U41C U43A: 0.05; for G7C A20U U48C A75C: 0.05; for G7C A13G A64G: 0.06.

As for G7A A21C U41A U49G A57U U76A C79U, the self-cleavage was 0. The same measure for G8A U31C A65U U69C U72C: 0.06; for G8A G10U A28U U67C: 0.04; for G7A A18G A20U U26A C62U U69C: 0.03.

Turning to G8C A18C U26C, the self-cleavage was 0.17. As for G8A G9A A15U G24A, the self-cleavage is 0.22. Consider G7A A35U A47C A56U U72C, for which the self-cleavage is 0.12.

G8A A57G U80C: the self-cleavage amounted to 0.07.

With G7C G9A G30U A45G G46U U80C, the self-cleavage was found to be 0. As for G7A U26C A45G, the self-cleavage was determined as 0.1.

Regarding G7A A35U U41A U72C, the self-cleavage came to 0.05. G7U A56G A65G U72C U78G U80A: the self-cleavage is 0.06. As for G7A C29G C34G G63U U72C, the self-cleavage amounted to 0.05. As to G7A A15C A21G U43C A57U U80C, the self-cleavage is 0.03. The same measure for G8A G9U U80C: 0.42; for G7A G10A U26C U31C U54A A56G: 0.05; for G7A U31G A75U: 0.26. The same measure for G7A G16U U48C U51A U69G U72A U76A: 0.03. The same measure for G8A A47G U54C U67C: 0.04; for G7A A18G A20G A56G U69C: 0.12. As to G8C A21G A28G, the self-cleavage stood at 0.31.

Take G8A A35G C40U A45U U72A A77U U78C: the self-cleavage came out at 0.04. The same measure for G7U U31G A56U U78A: 0.21; for G8A A13U A28U: 0.3; for G7A A13U U43C A64G U66C U76C A77G: 0.08. The same measure for G8A A15G U48C G53C G63U: 0.14. The same measure for G8A C40A A77U: 0.22; for G8A U26C A45G U60C A64G U67C: 0.04; for G7U A64G U66C: 0.22. On to G7U U43C U66C U72C A77G, for which the self-cleavage stood at 0.06.

Turning to G6U A35G U60A U80C, the self-cleavage was 0.21.

G6U C29U A56G A65G: the self-cleavage was determined as 0.05. As to G7A U26C U54C A64G U78C, the self-cleavage was found to be 0.05. The same measure for G8A A13U U54A U60C A65G: 0.07; for G7C A45G U58C U69C U76A: 0.04; for G7A A13G C40U: 0.61.

Turning to G7A G9A A35G U49C U60A, the self-cleavage worked out at 0.05. The same measure for G8A A15G U31C A64C: 0.05; for G8A U25G U49C U78C: 0.05. As for G7C A45G U58C C62U C68U U69C, the self-cleavage turned out to be 0.11. The same measure for G8A A18U A57G A65G U74A U80C: 0.04.

In the case of G6U G8U U25A U31C, the self-cleavage was 0.22. The same measure for G7A A21U A28U U54G A77U U80G: 0.05; for G7C U25C U31C U43A: 0.21. The same measure for G7U A21G U51C U54C: 0.04; for G7C U25C U48A U54G: 0.05; for G8A U25C G55A U80A: 0.08. The same measure for G7U U31A U51C A64G U74C: 0.18; for G6U C14U U66C U67C: 0.06; for G7U A18G U48C U49C U67C: 0.16. With G8A U60C A64G, the self-cleavage was determined as 0.29.

Consider G8A A15G A18U A56C, for which the self-cleavage worked out at 0.05. The same measure for G7U U25C U51C G55A A64C: 0.05.
